# Experimental data taken from the supplement of paper PMC8728848.
# The other results are listed elsewhere or left out.
# Columns and labels:
# Assay in all cases: glycan array binding signal (z-score within array); higher = stronger binding
# Conditions in all cases: glycan notation: IUPAC condensed, linker removed
# [1] = target: Fuc(a1-2)Gal6S(b1-3)GlcNAc
# Outline: (§1)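 The binding signal is a Z-score computed within each array and averaged over linkers. Arrays of the same protein sequence at different concentrations or buffers were also averaged together. Data originate from 3228 arrays in the Consortium for Functional Glycomics database, kept only where the protein sequence was available.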
# [2] = target: Fuc(a1-2)Gal6S(b1-3)GlcNAc6S
# Outline: as §1
# Fuc(a1-2)Gal6S(b1-4)Glc = target: Fuc(a1-2)Gal6S(b1-4)Glc
# Outline: as §1
# [3] = target: Fuc(a1-2)Gal6S(b1-4)Glc6S
# Outline: as §1
# Fuc(a1-2)[Gal(a1-3)]Gal = target: Fuc(a1-2)[Gal(a1-3)]Gal
# Outline: as §1
# [4] = target: Fuc(a1-2)[Gal(a1-3)]Gal(b1-3)GalNAc
# Outline: as §1
# [5] = target: Fuc(a1-2)[Gal(a1-3)]Gal(b1-3)GalNAc(b1-3)Gal(a1-4)Gal(b1-4)Glc
# Outline: as §1
# [6] = target: Fuc(a1-2)[Gal(a1-3)]Gal(b1-3)GlcNAc
# Outline: as §1
# [7] = target: Fuc(a1-2)[Gal(a1-3)]Gal(b1-3)GlcNAc(b1-2)Man(a1-3)[Fuc(a1-2)[Gal(a1-3)]Gal(b1-3)GlcNAc(b1-2)Man(a1-6)]Man(b1-4)GlcNAc(b1-4)GlcNAc
# Outline: as §1
# [8] = target: Fuc(a1-2)[Gal(a1-3)]Gal(b1-3)GlcNAc(b1-2)Man(a1-3)[Fuc(a1-2)[Gal(a1-3)]Gal(b1-3)GlcNAc(b1-2)Man(a1-6)]Man(b1-4)GlcNAc(b1-4)[Fuc(a1-6)]GlcNAc
# Outline: as §1
# [9] = target: Fuc(a1-2)[Gal(a1-3)]Gal(b1-3)GlcNAc(b1-3)GalNAc
# Outline: as §1
# [10] = target: Fuc(a1-2)[Gal(a1-3)]Gal(b1-3)GlcNAc(b1-6)GalNAc
# Outline: as §1
# [11] = target: Fuc(a1-2)[Gal(a1-3)]Gal(b1-4)Glc
# Outline: as §1
# [12] = target: Fuc(a1-2)[Gal(a1-3)]Gal(b1-4)GlcNAc
# Outline: as §1
# [13] = target: Fuc(a1-2)[Gal(a1-3)]Gal(b1-4)GlcNAc(b1-2)Man
# Outline: as §1
# [14] = target: Fuc(a1-2)[Gal(a1-3)]Gal(b1-4)GlcNAc(b1-2)Man(a1-3)[Fuc(a1-2)[Gal(a1-3)]Gal(b1-4)GlcNAc(b1-2)Man(a1-6)]Man(b1-4)GlcNAc(b1-4)GlcNAc
# Outline: as §1
# [15] = target: Fuc(a1-2)[Gal(a1-3)]Gal(b1-4)GlcNAc(b1-2)Man(a1-3)[Fuc(a1-2)[Gal(a1-3)]Gal(b1-4)GlcNAc(b1-2)Man(a1-6)]Man(b1-4)GlcNAc(b1-4)[Fuc(a1-6)]GlcNAc
# Outline: as §1
# [16] = target: Fuc(a1-2)[Gal(a1-3)]Gal(b1-4)GlcNAc(b1-3)GalNAc
# Outline: as §1
# [17] = target: Fuc(a1-2)[Gal(a1-3)]Gal(b1-4)GlcNAc(b1-3)[Fuc(a1-2)[Gal(a1-3)]Gal(b1-4)GlcNAc(b1-6)]GalNAc
# Outline: as §1
# [18] = target: Fuc(a1-2)[Gal(a1-3)]Gal(b1-4)GlcNAc(b1-6)GalNAc
# Outline: as §1
# [19] = target: Fuc(a1-2)[Gal(a1-3)]Gal(b1-4)[Fuc(a1-3)]Glc
# Outline: as §1
# [20] = target: Fuc(a1-2)[Gal(a1-3)]Gal(b1-4)[Fuc(a1-3)]GlcNAc
# Outline: as §1
# [21] = target: Fuc(a1-2)[Gal(a1-3)]Gal(b1-4)[Fuc(a1-3)]GlcNAc(b1-3)GalNAc
# Outline: as §1
# [22] = target: Fuc(a1-2)[Gal(a1-4)]Gal(b1-4)GlcNAc
# Outline: as §1
# [23] = target: Fuc(a1-2)[GalNAc(a1-3)]Gal
# Outline: as §1
# [24] = target: Fuc(a1-2)[GalNAc(a1-3)]Gal(b1-3)GalNAc(a1-3)[Fuc(a1-2)]Gal(b1-4)GlcNAc
# Outline: as §1
# [25] = target: Fuc(a1-2)[GalNAc(a1-3)]Gal(b1-3)GalNAc(b1-3)Gal(a1-4)Gal(b1-4)Glc
# Outline: as §1
# [26] = target: Fuc(a1-2)[GalNAc(a1-3)]Gal(b1-3)GlcNAc
# Outline: as §1
# [27] = target: Fuc(a1-2)[GalNAc(a1-3)]Gal(b1-3)GlcNAc(b1-2)Man(a1-3)[Fuc(a1-2)[GalNAc(a1-3)]Gal(b1-3)GlcNAc(b1-2)Man(a1-6)]Man(b1-4)GlcNAc(b1-4)GlcNAc
# Outline: as §1
# [28] = target: Fuc(a1-2)[GalNAc(a1-3)]Gal(b1-3)GlcNAc(b1-2)Man(a1-3)[Fuc(a1-2)[GalNAc(a1-3)]Gal(b1-3)GlcNAc(b1-2)Man(a1-6)]Man(b1-4)GlcNAc(b1-4)[Fuc(a1-6)]GlcNAc
# Outline: as §1
# [29] = target: Fuc(a1-2)[GalNAc(a1-3)]Gal(b1-3)GlcNAc(b1-3)GalNAc
# Outline: as §1
# [30] = target: Fuc(a1-2)[GalNAc(a1-3)]Gal(b1-3)GlcNAc(b1-6)GalNAc
# Outline: as §1
# [31] = target: Fuc(a1-2)[GalNAc(a1-3)]Gal(b1-4)Glc
# Outline: as §1
# [32] = target: Fuc(a1-2)[GalNAc(a1-3)]Gal(b1-4)GlcNAc
# Outline: as §1
# [33] = target: Fuc(a1-2)[GalNAc(a1-3)]Gal(b1-4)GlcNAc(b1-2)Man
# Outline: as §1
# [34] = target: Fuc(a1-2)[GalNAc(a1-3)]Gal(b1-4)GlcNAc(b1-2)Man(a1-3)[Fuc(a1-2)[GalNAc(a1-3)]Gal(b1-4)GlcNAc(b1-2)Man(a1-6)]Man(b1-4)GlcNAc(b1-4)GlcNAc
# Outline: as §1
# [35] = target: Fuc(a1-2)[GalNAc(a1-3)]Gal(b1-4)GlcNAc(b1-2)Man(a1-3)[Fuc(a1-2)[GalNAc(a1-3)]Gal(b1-4)GlcNAc(b1-2)Man(a1-6)]Man(b1-4)GlcNAc(b1-4)[Fuc(a1-6)]GlcNAc
# Outline: as §1
# [36] = target: Fuc(a1-2)[GalNAc(a1-3)]Gal(b1-4)GlcNAc(b1-3)Gal(b1-4)GlcNAc
# Outline: as §1
# [37] = target: Fuc(a1-2)[GalNAc(a1-3)]Gal(b1-4)GlcNAc(b1-3)Gal(b1-4)GlcNAc(b1-3)Gal(b1-4)GlcNAc
# Outline: as §1
# [38] = target: Fuc(a1-2)[GalNAc(a1-3)]Gal(b1-4)GlcNAc(b1-3)GalNAc
# Outline: as §1
# [39] = target: Fuc(a1-2)[GalNAc(a1-3)]Gal(b1-4)GlcNAc(b1-3)[Fuc(a1-2)[GalNAc(a1-3)]Gal(b1-4)GlcNAc(b1-6)]GalNAc
# Outline: as §1
# [40] = target: Fuc(a1-2)[GalNAc(a1-3)]Gal(b1-4)GlcNAc(b1-6)GalNAc
# Outline: as §1
# [41] = target: Fuc(a1-2)[GalNAc(a1-3)]Gal(b1-4)[Fuc(a1-3)]GlcNAc
# Outline: as §1
# [42] = target: Fuc(a1-2)[GalNAc(a1-3)]Gal(b1-4)[Fuc(a1-3)]GlcNAc(b1-3)GalNAc
# Outline: as §1
# [43] = target: Fuc(a1-2)[GalNAc(a1-4)]Gal(b1-4)GlcNAc
# Outline: as §1
binder,measurement,setting,value
"Apa (Mycobacterium tuberculosis), Rv1860 (protein) MHQVDPNLTRRKGRLAALAIAAMASASLVTVAVPATANADPEPAPPVPTTAASPPSTAAAPPAPATPVAPPPPAAANTPNAQPGDPNAAPPPADPNAPPPPVIAPNAPQPVRIDNPVGGFSFALPAGWVESDAAHFDYGSALLSKTTGDPPFPGQPPPVANDTRIVLGRLDQKLYASAEATDSKAAARLGSDMGEFYMPYPGTRINQETVSLDANGVSGSASYYEVKFSDPSKPNGQIWTGVIGSPAANAPDAGPPQRWFVVWLGTANNPVDKGAAKALAESIRPLVAPPPAPAPAPAEPAPAPAPAGEVAPTPTTPTPQRTLPA",glycan array binding signal (z-score),[1],1.81
same,glycan array binding signal (z-score),[2],2.87
same,glycan array binding signal (z-score),Fuc(a1-2)Gal6S(b1-4)Glc,-0.257
same,glycan array binding signal (z-score),[3],1.9
same,glycan array binding signal (z-score),Fuc(a1-2)[Gal(a1-3)]Gal,-0.142
same,glycan array binding signal (z-score),[4],0.254
same,glycan array binding signal (z-score),[5],-0.198
same,glycan array binding signal (z-score),[6],-0.446
same,glycan array binding signal (z-score),[7],-0.163
same,glycan array binding signal (z-score),[8],0.338
same,glycan array binding signal (z-score),[9],-0.098
same,glycan array binding signal (z-score),[10],-0.428
same,glycan array binding signal (z-score),[11],0.178
same,glycan array binding signal (z-score),[12],-0.623
same,glycan array binding signal (z-score),[13],-0.105
same,glycan array binding signal (z-score),[14],-0.306
same,glycan array binding signal (z-score),[15],-0.067
same,glycan array binding signal (z-score),[16],-0.203
same,glycan array binding signal (z-score),[17],0.651
same,glycan array binding signal (z-score),[18],1.6
same,glycan array binding signal (z-score),[19],-0.318
same,glycan array binding signal (z-score),[20],0.273
same,glycan array binding signal (z-score),[21],-0.007
same,glycan array binding signal (z-score),[22],0.43
same,glycan array binding signal (z-score),[23],-0.191
same,glycan array binding signal (z-score),[24],14.3
same,glycan array binding signal (z-score),[25],5.64
same,glycan array binding signal (z-score),[26],-0.103
same,glycan array binding signal (z-score),[27],-0.284
same,glycan array binding signal (z-score),[28],1.6
same,glycan array binding signal (z-score),[29],0.338
same,glycan array binding signal (z-score),[30],-0.091
same,glycan array binding signal (z-score),[31],-0.137
same,glycan array binding signal (z-score),[32],-0.327
same,glycan array binding signal (z-score),[33],0.136
same,glycan array binding signal (z-score),[34],0.378
same,glycan array binding signal (z-score),[35],0.127
same,glycan array binding signal (z-score),[36],-0.657
same,glycan array binding signal (z-score),[37],-0.076
same,glycan array binding signal (z-score),[38],0.239
same,glycan array binding signal (z-score),[39],0.394
same,glycan array binding signal (z-score),[40],-0.315
same,glycan array binding signal (z-score),[41],0.05
same,glycan array binding signal (z-score),[42],0.258
same,glycan array binding signal (z-score),[43],-0.306
